Laboratory results published in PubChem BioAssay (NCATS).
Values joined by “and” are separate entries in the source; they are usually repeats but may differ in a detail not shown here. Equal entries are not always repeated. The inconclusive results got no clear call from the source; some entries with a clear call stand among them for comparison. For some of these results: A potency beside an inconclusive call is a rough fit, not a confirmed value. For some of these results: “Side channel” marks fits to a control or component signal instead of the main read-out. Active and inactive are the calls of the source. Unless noted, calls come from the whole dose curve; as a rule, active = well fitted curve in the direction sought with a large enough effect; inconclusive = small, poorly fitted or top-dose-only effect, or another doubt; inactive = no such curve, though single readings can be large; an effect the other way counts as inactive or inconclusive.

Columns and labels:
[1] = target: Cytochrome P450 2D6 (Homo sapiens) (UniProt P10635); assay: qHTS Assay for Inhibitors and Substrates of Cytochrome P450 2D6 (AID 891);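 note: luciferin methyl ether substrate demethylated by CYP2D6 with NADPH regeneration; top concentration of the series differs between compounds; % is set by controls: 0 for no effect and ±100 for the full control effect; nearly all actives have a fitted effect of over 60% in size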
Procedure, shortened: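 Human CYP2D6 (5 nM) with 30 uM Luciferin-ME EGE (at Km) in 100 mM KPO4, compound preincubated 10 min, then NADPH regeneration system for 60 min at room temperature. Luciferin read by luminescence; normalized to 1.43 uM quinidine.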

[2] = qHTS Assay for Identification of Small Molecule Antagonists for NFkB Signaling Pathway (AID 895; active = well fitted inhibition curve with a large enough effect in the signal ratio, with a control signal flat, not every such curve was filed as active; inconclusive = small, poorly fitted or top-dose-only effect, or effect the other way, or a change in a side signal; the % refers to the signal ratio; note: % is set by controls: 0 for no effect and ±100 for the full control effect); conditions: NFkB beta-lactamase reporter cells, FRET ratio 460/530; Potency: stimulated with 10 pM TNF alpha unless noted; activity change, negative = inhibition: at 38.3 µM (top of the series) unless noted
Procedure, shortened: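 NFkB-bla ME-180 cervical carcinoma cells with beta-lactamase reporter under NFkB response element; compounds added, then TNF alpha at 10 pM final (EC50), 5 h at 37 C. LiveBLAzer substrate 2 h, room temperature; emission 460/530 nm at 405 nm excitation.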

[3] = qHTS Assay for Identification of Small Molecule Antagonists for Thrombopoietin (TPO) Signaling Pathway (AID 918); conditions: TPO-dependent cell signaling reporter, antagonist mode; activity change, negative = inhibition: at 38.5 µM (top of the series); note: nearly all actives have a fitted effect of over 60% in size
Procedure, shortened: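 Murine Ba/F3 cells stably expressing human TPO receptor and a Glycoprotein IIb promoter–luciferase reporter were IL-3-starved overnight, treated with compounds plus TPO (26 pM final, its EC50) for 24 hrs at 37 C, then read by luminescence.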

[4] = target: Muscarinic acetylcholine receptor M1 (Rattus norvegicus) (UniProt P08482); assay: qHTS Assay for Antagonists of Acetylcholine Muscarinic M1 Receptor: Kinetic Measurement of Intracellular Calcium Response (AID 943);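 note: Fluo-4 calcium signal as peak divided by basal fluorescence over 4 min; nearly all actives have a fitted effect of over 75% in size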
Procedure, shortened: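 CHO cells stably expressing rat M1 were loaded with no-wash Fluo-4 dye for 1 h at 37C, pre-incubated 10 min with compound, then challenged with EC80 carbachol (100 nM final); kinetic calcium read 4 min, peak/basal ratio.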

[5] = target: Muscarinic acetylcholine receptor M1 (Rattus norvegicus) (UniProt P08482); assay: qHTS Assay for Antagonists of Acetylcholine Muscarinic M1 Receptor: Measurement of IP-One Response (AID 944); note: potency is the fitted concentration of half-maximal effect; nearly all actives have a fitted effect of over 75% in size
[6] = target: Pyruvate kinase PKM (Homo sapiens) (UniProt P14618); assay: qHTS Assay for Inhibitors of Human Muscle Pyruvate Kinase (AID 958); conditions: purified human PKM enzyme activity
Procedure, shortened: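 Compound pinned into substrate mix (0.5 mM PEP, 0.1 mM ADP), then 0.1 nM PKM2 added; 1 h, RT. Stop/detection luciferase reagent added, luminescence read. Normalized to no-inhibition and no-enzyme or reference-inhibitor controls.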

[7] = target: Cytochrome P450 2C19 (Homo sapiens) (UniProt P33261); assay: qHTS Assay for Inhibitors and Substrates of Cytochrome P450 2C19 (AID 899); note: potency is the fitted concentration of half-maximal effect; nearly all actives have a fitted effect of over 60% in size
Procedure, shortened: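 In 50mM KPO4, the reaction held 5nM enzyme and KM-level (10uM) Luciferin-H EGE; it ran 60 min at 37C after NADPH regeneration and a 10 min compound preincubation. Luminescence values were scaled to 57uM ketoconazole as complete inhibition.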

[8] = MultiTox-Fluor Cytotoxicity Assay - LYMP1-001 - Live Cells (AID 947);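 note: 0% = DMSO only and full inhibition = tetraoctylammonium bromide control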
[9] = target: Estrogen receptor (Homo sapiens) (UniProt P03372); assay: qHTS assay for small molecule antagonists of estrogen receptor alpha signaling (AID 588513; active = well fitted curve in the direction sought with a large enough effect in the signal ratio, with a control signal flat, not every such curve was filed as active; inconclusive = small, poorly fitted or top-dose-only effect, or effect the other way, or a change in a side signal; inactive = no such curve, though single readings can be large or run the other way; the % refers to the signal ratio; note: % is set by controls: 0 for no effect and ±100 for the full control effect); conditions: ER-alpha-UAS-bla HEK293, beta-lactamase ratio, antagonist mode; activity, negative = inhibition: at 76.9 µM (top of the series) unless noted
Procedure, shortened: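 Antagonist-mode qHTS in ER-alpha-UAS-bla HEK 293 cells: compound titration, 0.5nM estradiol for 18 h, CCF4 fluorescence, Hill-derived IC50.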

[10] = target: Androgen receptor (Homo sapiens) (UniProt P10275); assay: qHTS assay for small molecule agonists of androgen receptor signaling (AID 588515; active = well fitted curve in the direction sought with a large enough effect in the signal ratio, with a control signal flat; inconclusive = small, poorly fitted or top-dose-only effect, or effect the other way, or a change in a side signal; inactive = no such curve, though single readings can be large or run the other way; the % refers to the signal ratio; note: potency is the fitted concentration of half-maximal effect); conditions: AR-UAS-bla HEK293, beta-lactamase ratio, agonist 16 h; activation: hits give high values
Procedure, shortened: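 EC50 and efficacy came from Hill fits of titrations (up to 92 uM) normalized to 30 nM R1881 as 100% and DMSO as 0%. Compound exposure was 16 h at 37 C on AR-UAS-bla HEK293 cells, with a 405/460/530 nm CCF4 fluorescence read.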

[11] = target: Androgen receptor (Homo sapiens) (UniProt P10275); assay: qHTS assay for small molecule antagonists of androgen receptor signaling (AID 588516; active = well fitted curve in the direction sought with a large enough effect in the signal ratio, with a control signal flat, not every such curve was filed as active; inconclusive = small, poorly fitted or top-dose-only effect, or effect the other way, or a change in a side signal; inactive = no such curve, though single readings can be large or run the other way; the % refers to the signal ratio; note: % is set by controls: 0 for no effect and ±100 for the full control effect); conditions: AR-UAS-bla HEK293, beta-lactamase ratio, antagonist mode, 16 h; activity change, negative = inhibition: at 76.8 µM (top of the series)
Procedure, shortened: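 Antagonist-mode qHTS: inhibition of R1881 (10 nM)-driven beta-lactamase expression in GripTite HEK 293 cells is measured after 16 h; values are Hill-derived IC50s normalized between R1881 and DMSO wells.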

[12] = target: Glucocorticoid receptor (Homo sapiens) (UniProt P04150); assay: qHTS assay for small molecule antagonists of glucocorticoid receptor signaling (AID 588533; active = well fitted inhibition curve with a large enough effect in the signal ratio, with a control signal flat, not every such curve was filed as active; inconclusive = small, poorly fitted or top-dose-only effect, or effect the other way, or a change in a side signal; the % refers to the signal ratio;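 note: cells stimulated with 2 nM dexamethasone as agonist; % is set by controls: 0 for no effect and ±100 for the full control effect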); conditions: HeLa MMTV-bla, GRE beta-lactamase ratio, antagonist mode, 18 h; activity change, negative = inhibition: at 76.8 µM (top of the series) unless noted
[13] = target: Peroxisome proliferator-activated receptor delta (Homo sapiens) (UniProt Q03181); assay: qHTS assay for small molecule agonists of peroxisome proliferator-activated receptor delta signaling (AID 588534; calls by dose curve; note: potency is the fitted concentration of half-maximal effect); conditions: HEK293T PPARdelta-UAS-bla, beta-lactamase ratio, 18 h; activation: at 76.7 µM (top of the series)
Procedure, shortened: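 Cell-based beta-lactamase reporter assay run in agonist mode: cells seeded and incubated 5 hrs at 37 C, compounds added and incubated 18 hrs at 37 C. CCF4 dye fluorescence read after 2 hrs at RT; EC50 and efficacy from Hill fits.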

[14] = target: Peroxisome proliferator-activated receptor delta (Homo sapiens) (UniProt Q03181); assay: qHTS assay for small molecule antagonists of peroxisome proliferator-activated receptor delta signaling (AID 588535; active = well fitted inhibition curve with a large enough effect in the signal ratio, with a control signal flat, not every such curve was filed as active; inconclusive = small, poorly fitted or top-dose-only effect, or effect the other way, or a change in a side signal; inactive = no such curve, though single readings can be large or run the other way; the % refers to the signal ratio); conditions: HEK293T PPARd-UAS-bla, beta-lactamase FRET ratio, 18 h; activity change, negative = inhibition: at 76.7 µM (top of the series) unless noted
Procedure, shortened: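 GeneBLAzer PPAR-delta-UAS-bla HEK293T cells in medium with 2% charcoal/dextran FBS were preincubated 5 hrs at 37 C, then given compounds, incubated 18 hrs at 37 C, and read by CCF4 beta-lactamase fluorescence; IC50 from Hill fits.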

[15] = target: Peroxisome proliferator-activated receptor gamma (Homo sapiens) (UniProt P37231); assay: qHTS assay for small molecule agonists of peroxisome proliferator-activated receptor gamma signaling (AID 588536; active = well fitted curve in the direction sought with a large enough effect in the signal ratio, with a control signal flat, not every such curve was filed as active; inconclusive = small, poorly fitted or top-dose-only effect, or effect the other way, or a change in a side signal; inactive = no such curve, though single readings can be large or run the other way; the % refers to the signal ratio;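 note: 0% = DMSO basal wells and 100% = rosiglitazone at 2 µM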); conditions: HEK293 PPARg-UAS-bla, beta-lactamase ratio, 16 h; activation: at 76.7 µM (top of the series), percent of rosiglitazone response, DMSO as zero unless noted
Procedure, shortened: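 PPAR-gamma-UAS-bla HEK293 cells in medium with 1% charcoal/dextran-treated FBS were exposed to compounds for 16 h at 37 C. Beta-lactamase activity was read with CCF4 substrate (405 nm excitation, 460/530 nm emission).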

[16] = target: Vitamin D3 receptor (Homo sapiens) (UniProt P11473); assay: qHTS assay for small molecule antagonists of vitamin D receptor signaling (AID 588541; calls by dose curve); conditions: HEK293T VDR-UAS-bla, beta-lactamase ratio, antagonist mode; activity change, negative = inhibition: at 76.7 µM (top of the series)
[17] = target: Retinoic acid receptor RXR-alpha (Homo sapiens) (UniProt P19793); assay: qHTS assay for small molecule agonists of retinoid X receptor alpha signaling (AID 588544; calls by dose curve; note: potency is the fitted concentration of half-maximal effect;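 for activation: 0% = DMSO basal wells and 100% = reference agonist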); conditions: HEK293T RXRa-UAS-bla, beta-lactamase reporter, 18 h; activation: at 76.7 µM (top of the series) unless noted
[18] = target: Thyroid hormone receptor beta (Homo sapiens) (UniProt P10828); assay: qHTS assay for small molecule antagonists of thyroid hormone receptor beta signaling (AID 588547; active = well fitted inhibition curve with a large enough effect in the signal ratio, with a control signal flat, not every such curve was filed as active; inconclusive = small, poorly fitted or top-dose-only effect, or effect the other way, or a change in a side signal; the % refers to the signal ratio; note: potency is the fitted concentration of half-maximal effect); conditions: TR-UAS-bla HEK293, beta-lactamase ratio, antagonist mode, 18 h
Procedure, shortened: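 TR-UAS-bla GripTite HEK293 cells in 2% charcoal/dextran FBS medium were preincubated 4 h at 37 C, given compound (0.59 nM to 92 uM) plus 0.4 nM T3 (final) for 18 h, then CCF4 for 2 h at RT; Hill fit gave IC50.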

[19] = qHTS assay for small molecule agonists of the antioxidant response element (ARE) signaling pathway (AID 651741; active = well fitted activation curve with a large enough effect in the signal ratio; inconclusive = small, poorly fitted or top-dose-only effect, or effect the other way, or a change in a side signal; the % refers to the signal ratio; note: potency is the fitted concentration of half-maximal effect); conditions: HepG2 ARE-bla reporter, beta-lactamase FRET ratio, 16 h; activation: at 96 µM (top of the series) unless noted
Procedure, shortened: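 ARE-bla HepG2 cells (beta-lactamase reporter under ARE control) were plated at 2,000 cells/well, preincubated 5 h at 37 C/5% CO2, then treated with DMSO-dissolved compounds for 16 h at 37 C; LiveBLAzer B/G FRET substrate added, fluorescence read after 2 h at room temperature.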

[20] = qHTS assay for small molecule disruptors of the mitochondrial membrane potential - 1 hr assay (AID 651754; calls by dose curve; note: % is set by controls: 0 for no effect and ±100 for the full control effect; nearly all actives have a fitted effect of over 35% in size); conditions: ratio change, negative = depolarisation: at 92.2 µM (top of the series)
Procedure, shortened: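 HepG2 cells, attached overnight at 37C, were exposed to compound or DMSO vehicle for 1 hr at 37C, 5% CO2, then stained with Mito-MPS dye for 30 min. Red aggregate versus green monomer fluorescence reports membrane potential.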

[21] = qHTS assay to identify small molecules that stimulate interleukin-8 (IL-8) secretion (AID 651758; active = well fitted activation curve with a large enough effect in the signal ratio; inconclusive = small, poorly fitted or top-dose-only effect, or effect the other way, or a change in a side signal; the % refers to the signal ratio; note: 0% is about no effect); conditions: HTRF ratio (665/615); activation: at 92.2 µM (top of the series)
Procedure, shortened: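 THP-1, 2000 cells/well; cpd 16 h, 37 C; add cryptate + XL665 anti-IL-8 Abs; RT 1-3 h; TR-FRET read.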

[22] = target: Nuclear receptor ROR-gamma (Homo sapiens) (UniProt P51449); assay: qHTS assay for small molecule antagonists of the retinoid-related orphan receptor gamma (ROR-gamma) signaling pathway (AID 651802); note: potency is the fitted concentration of half-maximal effect; nearly all actives have a fitted effect of over 60% in size
Procedure, shortened: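 CHO cells carrying TET-inducible ROR-gamma and an ROR response element–luciferase reporter were exposed to compound, then induced with doxycycline. After 16hr at 37C, luminescence was read; lower signal indicates antagonism.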

[23] = target: DNA dC->dU-editing enzyme APOBEC-3G (Homo sapiens) (UniProt Q9HC16); assay: qHTS for inhibitors of Vif-A3G interactions: Validation (AID 588379); note: potency is the fitted concentration of half-maximal effect
Procedure, shortened: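 HeLa cells stably expressing Vif and A3G-eYFP, 700 cells/well, incubated overnight at 37 deg C, then exposed to compound overnight at 37 deg C. Inhibition of Vif-mediated degradation read as increased yellow fluorescence (Ex 488/Em 500-530) by laser-scanning cytometry.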
Tags give direction and shape of the fitted curve or compound fluorescence and quenching.

UniProt Q03181, sequence (Q03181 whole entry, looked up): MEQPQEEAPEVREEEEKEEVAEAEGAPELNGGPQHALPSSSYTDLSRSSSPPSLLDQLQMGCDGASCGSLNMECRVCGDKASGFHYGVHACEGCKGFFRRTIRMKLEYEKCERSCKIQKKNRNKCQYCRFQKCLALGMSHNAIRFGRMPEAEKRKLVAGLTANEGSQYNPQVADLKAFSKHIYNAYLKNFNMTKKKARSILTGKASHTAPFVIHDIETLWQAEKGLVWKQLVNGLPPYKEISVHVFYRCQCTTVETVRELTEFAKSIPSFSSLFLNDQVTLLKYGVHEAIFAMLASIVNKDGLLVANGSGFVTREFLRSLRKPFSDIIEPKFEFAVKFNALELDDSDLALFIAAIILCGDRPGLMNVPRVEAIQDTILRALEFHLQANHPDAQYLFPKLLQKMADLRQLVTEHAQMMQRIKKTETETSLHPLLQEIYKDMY
UniProt P10275, sequence (P10275 whole entry, looked up): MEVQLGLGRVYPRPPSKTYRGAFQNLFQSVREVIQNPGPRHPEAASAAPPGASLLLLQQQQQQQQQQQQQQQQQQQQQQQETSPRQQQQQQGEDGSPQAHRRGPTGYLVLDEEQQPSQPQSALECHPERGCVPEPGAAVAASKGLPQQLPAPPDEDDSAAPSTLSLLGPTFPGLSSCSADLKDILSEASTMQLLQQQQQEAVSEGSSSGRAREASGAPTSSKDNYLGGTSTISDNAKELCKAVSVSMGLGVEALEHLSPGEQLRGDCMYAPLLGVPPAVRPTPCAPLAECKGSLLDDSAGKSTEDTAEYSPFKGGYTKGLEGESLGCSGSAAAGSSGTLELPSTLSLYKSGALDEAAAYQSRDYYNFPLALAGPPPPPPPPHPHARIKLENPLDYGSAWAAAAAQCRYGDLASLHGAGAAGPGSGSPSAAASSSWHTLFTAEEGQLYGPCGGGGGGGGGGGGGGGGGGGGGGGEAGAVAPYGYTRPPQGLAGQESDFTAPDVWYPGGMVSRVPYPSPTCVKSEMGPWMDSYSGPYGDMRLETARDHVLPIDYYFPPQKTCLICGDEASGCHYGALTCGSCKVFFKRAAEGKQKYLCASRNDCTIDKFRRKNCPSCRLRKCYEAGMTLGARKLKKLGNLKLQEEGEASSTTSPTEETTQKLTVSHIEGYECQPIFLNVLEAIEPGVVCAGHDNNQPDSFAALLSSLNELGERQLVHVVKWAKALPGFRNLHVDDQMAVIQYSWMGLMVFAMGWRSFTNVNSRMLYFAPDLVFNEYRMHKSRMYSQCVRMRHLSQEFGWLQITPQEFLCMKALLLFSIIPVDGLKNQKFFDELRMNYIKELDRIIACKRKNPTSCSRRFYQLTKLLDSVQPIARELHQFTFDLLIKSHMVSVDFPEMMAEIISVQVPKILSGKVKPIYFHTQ
UniProt P10828, sequence (P10828 whole entry, looked up): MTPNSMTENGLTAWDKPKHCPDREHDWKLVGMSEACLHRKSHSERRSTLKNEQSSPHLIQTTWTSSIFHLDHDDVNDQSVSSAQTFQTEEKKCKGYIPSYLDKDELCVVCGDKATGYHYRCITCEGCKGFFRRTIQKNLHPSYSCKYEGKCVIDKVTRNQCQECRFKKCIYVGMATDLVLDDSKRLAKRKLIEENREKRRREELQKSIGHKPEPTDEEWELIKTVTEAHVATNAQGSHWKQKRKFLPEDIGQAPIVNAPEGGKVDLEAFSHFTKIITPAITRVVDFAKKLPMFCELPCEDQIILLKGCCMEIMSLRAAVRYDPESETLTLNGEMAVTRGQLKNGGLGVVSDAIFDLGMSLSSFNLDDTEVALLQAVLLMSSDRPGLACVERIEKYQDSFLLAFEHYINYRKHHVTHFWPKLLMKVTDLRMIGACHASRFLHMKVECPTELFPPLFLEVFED
UniProt P19793, sequence (P19793 whole entry, looked up): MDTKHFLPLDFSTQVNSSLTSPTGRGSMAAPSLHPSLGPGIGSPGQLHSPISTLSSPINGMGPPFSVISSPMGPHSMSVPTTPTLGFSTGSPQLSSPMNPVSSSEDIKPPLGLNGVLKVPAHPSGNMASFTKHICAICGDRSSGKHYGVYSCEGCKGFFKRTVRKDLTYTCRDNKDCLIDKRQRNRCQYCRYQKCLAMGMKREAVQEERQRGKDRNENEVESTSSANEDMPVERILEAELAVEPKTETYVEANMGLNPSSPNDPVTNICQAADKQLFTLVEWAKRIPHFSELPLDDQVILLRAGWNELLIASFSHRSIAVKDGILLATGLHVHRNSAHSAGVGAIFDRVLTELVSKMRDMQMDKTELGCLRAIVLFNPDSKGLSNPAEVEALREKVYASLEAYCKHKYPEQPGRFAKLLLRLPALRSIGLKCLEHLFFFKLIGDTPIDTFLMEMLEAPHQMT
UniProt P08482, sequence (P08482 whole entry, looked up): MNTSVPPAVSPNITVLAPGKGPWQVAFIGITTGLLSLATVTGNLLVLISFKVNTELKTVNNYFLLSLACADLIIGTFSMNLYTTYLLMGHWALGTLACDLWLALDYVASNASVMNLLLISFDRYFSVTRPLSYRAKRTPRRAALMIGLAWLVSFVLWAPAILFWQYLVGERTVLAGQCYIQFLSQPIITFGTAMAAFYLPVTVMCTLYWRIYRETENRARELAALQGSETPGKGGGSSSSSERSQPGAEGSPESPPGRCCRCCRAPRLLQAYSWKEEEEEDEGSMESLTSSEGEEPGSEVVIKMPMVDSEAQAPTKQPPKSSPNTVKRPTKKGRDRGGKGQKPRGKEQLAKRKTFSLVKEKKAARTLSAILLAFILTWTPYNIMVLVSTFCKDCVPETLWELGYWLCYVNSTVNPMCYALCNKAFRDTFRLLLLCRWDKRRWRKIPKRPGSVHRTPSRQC
UniProt Q9HC16, sequence (Q9HC16 whole entry, looked up): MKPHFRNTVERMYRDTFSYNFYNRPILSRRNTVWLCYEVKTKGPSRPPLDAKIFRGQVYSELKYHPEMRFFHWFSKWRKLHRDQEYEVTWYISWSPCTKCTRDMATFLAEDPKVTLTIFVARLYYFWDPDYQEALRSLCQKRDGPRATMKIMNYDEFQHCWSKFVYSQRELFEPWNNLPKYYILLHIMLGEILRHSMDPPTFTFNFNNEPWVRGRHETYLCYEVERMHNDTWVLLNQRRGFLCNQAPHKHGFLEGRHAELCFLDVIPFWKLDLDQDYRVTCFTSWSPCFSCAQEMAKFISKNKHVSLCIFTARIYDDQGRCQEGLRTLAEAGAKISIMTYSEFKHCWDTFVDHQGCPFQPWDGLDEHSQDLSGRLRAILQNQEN
UniProt P03372, sequence (P03372 whole entry, looked up): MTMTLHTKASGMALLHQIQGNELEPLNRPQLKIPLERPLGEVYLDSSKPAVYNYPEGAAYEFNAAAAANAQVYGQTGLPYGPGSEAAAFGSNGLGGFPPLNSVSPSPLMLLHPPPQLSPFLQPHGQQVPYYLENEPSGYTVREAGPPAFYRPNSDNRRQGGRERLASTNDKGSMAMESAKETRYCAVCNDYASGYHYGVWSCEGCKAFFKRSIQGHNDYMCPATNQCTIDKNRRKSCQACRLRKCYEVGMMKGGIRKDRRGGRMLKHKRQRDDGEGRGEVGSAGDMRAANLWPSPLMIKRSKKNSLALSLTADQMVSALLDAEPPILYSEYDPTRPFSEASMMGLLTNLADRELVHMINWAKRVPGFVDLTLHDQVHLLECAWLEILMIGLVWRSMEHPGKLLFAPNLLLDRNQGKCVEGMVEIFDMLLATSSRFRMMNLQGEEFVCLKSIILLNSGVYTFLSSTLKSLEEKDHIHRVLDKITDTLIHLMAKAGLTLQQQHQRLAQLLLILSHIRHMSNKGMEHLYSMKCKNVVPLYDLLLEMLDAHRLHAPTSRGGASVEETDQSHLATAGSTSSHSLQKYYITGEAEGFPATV
UniProt P51449, sequence (P51449 whole entry, looked up): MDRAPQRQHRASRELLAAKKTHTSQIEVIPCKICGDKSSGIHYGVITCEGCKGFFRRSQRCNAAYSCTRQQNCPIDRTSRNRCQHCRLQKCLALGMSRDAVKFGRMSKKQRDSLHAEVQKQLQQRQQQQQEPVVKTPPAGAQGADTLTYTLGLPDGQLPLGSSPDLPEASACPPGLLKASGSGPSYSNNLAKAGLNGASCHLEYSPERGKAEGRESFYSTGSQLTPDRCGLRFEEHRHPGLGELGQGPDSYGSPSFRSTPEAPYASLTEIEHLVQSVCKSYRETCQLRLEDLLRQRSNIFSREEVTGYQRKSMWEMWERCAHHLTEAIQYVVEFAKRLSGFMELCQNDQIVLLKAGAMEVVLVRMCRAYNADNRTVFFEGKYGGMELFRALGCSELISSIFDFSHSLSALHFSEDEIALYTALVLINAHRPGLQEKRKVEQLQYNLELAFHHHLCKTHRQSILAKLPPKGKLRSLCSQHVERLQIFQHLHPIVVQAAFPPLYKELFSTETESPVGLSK
UniProt P33261, sequence (P33261 whole entry, looked up): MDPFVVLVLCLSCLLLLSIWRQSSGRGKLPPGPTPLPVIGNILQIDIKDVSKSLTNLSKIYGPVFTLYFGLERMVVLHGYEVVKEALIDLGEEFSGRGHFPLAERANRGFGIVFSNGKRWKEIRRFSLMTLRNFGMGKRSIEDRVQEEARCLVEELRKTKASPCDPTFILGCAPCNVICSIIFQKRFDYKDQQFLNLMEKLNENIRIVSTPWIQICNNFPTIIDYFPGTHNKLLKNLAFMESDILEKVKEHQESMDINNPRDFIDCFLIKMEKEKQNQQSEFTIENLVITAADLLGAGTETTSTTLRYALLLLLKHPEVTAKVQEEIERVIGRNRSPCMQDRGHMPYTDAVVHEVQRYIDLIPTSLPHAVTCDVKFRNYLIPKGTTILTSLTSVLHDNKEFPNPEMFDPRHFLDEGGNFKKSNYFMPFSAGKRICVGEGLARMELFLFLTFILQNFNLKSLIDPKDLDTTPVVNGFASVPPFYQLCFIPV

C/C(O)=C(/C#N)C(=O)Nc1cc(Br)ccc1Br
inactive: Potency [1] | Potency [2] | Potency [4]
inconclusive: activity change, negative = inhibition [3] -11.3% [phenotype inactive] | Potency [5] 0.0398 µM [inhibitor, full curve, poor fit] | Potency [6] 15.8 µM [inhibitor, partial curve]

COc1ccc(C[C@H]2NC[C@H](O)[C@@H]2OC(C)=O)cc1
active: Potency [7] 3.16 µM

O=C1CC[C@@]2(O)[C@H]3Cc4ccc(O)c5c4[C@@]2(CCN3CC2CC2)[C@@H]1O5
inconclusive: activity change, negative = inhibition [3] -28.9% [phenotype inactive]

CCOP(=S)(OCC)Oc1nc(Cl)c(Cl)cc1Cl
active: Potency [19] 37.6 µM [middle of 4 runs]
inconclusive: Potency [10] 17.8 µM [side channel, rising, partial curve, poor fit] | activation [10] -7.3% | activity change, negative = inhibition [11] 27.7% | activity change, negative = inhibition [12] 18.4% | Potency [13] 39.8 µM [side channel, rising, partial curve] | activity change, negative = inhibition [14] 11.9% and 13.4% and 18.8% | activation [15] 7.01% and 4.82% and 11.2% | activity change, negative = inhibition [16] 11.1% | Potency [17] 10 µM [side channel, rising, full curve, poor fit] | activation [17] -43.5% and -46.2% | Potency [18] 0.316 µM [side channel, falling, full curve, poor fit] | ratio change, negative = depolarisation [20] -30% | activation [21] -6.48% | Potency [22] 33.5 µM [inhibitor, partial curve, poor fit]
inactive: Potency [8] | Potency [9] | activity change % (negative = inhibition) [18] 4.5% and 5.64% and -7.44%

CN1C[C@@H](C(=O)N[C@@]2(C)O[C@]3(O)C4CCCN4C(=O)[C@@H](Cc4ccccc4)N3C2=O)C=C2c3cccc4[nH]cc(c34)C[C@@H]21 (stereo partly drawn)
inconclusive: Potency [23] 33.5 µM [inhibitor, single point]

CCCCC/C=C\C/C=C\C/C=C\C/C=C\CCCC(=O)O
inconclusive: Potency [23] 33.5 µM [inhibitor, partial curve, poor fit]
